Source: the antibiotic and cytotoxicity screens of Wong et al. (2023)
The list shows a part of the results.

The compounds below were run on HSkMC (human skeletal muscle cells) (assay: cytotoxicity call (relative viability < 0.9)). Conditions: 10 µM.
For `C[C@@H]1CN([C@@H](C)CO)C(=O)c2cc(NS(=O)(=O)c3cn(C)cn3)ccc2O[C@@H]1CN(C)Cc1ccncc1`, the cytotoxicity call was “inactive”. For `COc1ccc(NC(=O)N(C)C[C@H]2OCc3ccccc3-c3c(n(C)c4ccccc34)C(=O)N([C@H](C)CO)C[C@@H]2C)c(OC)c1`, the cytotoxicity call was “inactive”. With `Cc1noc(C)c1NC(=O)N(C)C[C@@H]1Oc2ccc(NC(=O)Nc3cccc4ccccc34)cc2CC(=O)N([C@@H](C)CO)C[C@@H]1C` the cytotoxicity call was “inactive”. With `COc1cccc(C(=O)Nc2ccc3c(c2)C(=O)N(C)[C@H]2CC[C@@H](CC(=O)NCC4CC4)O[C@H]2CO3)c1` the cytotoxicity call was “inactive”. With `COc1cc(C(C)=O)ccc1O` the cytotoxicity call was “inactive”. `[O-][n+]1onc2c1CCc1c-2nn(-c2ccccc2)[n+]1[O-]` was tested, and the cytotoxicity call was “inactive”. `Cc1ccc(S(=O)(=O)N2C[C@@H](O)COC[C@H]3O[C@@H](CC(=O)NCc4ccc5c(c4)OCO5)CC[C@@H]32)cc1` was tested, and the cytotoxicity call was “inactive”. For `Cc1cc2nc(C(=O)N[C@H]3CCN(C)C3)cc(-c3ccccc3Cl)c2c(C)c1-c1ccc(CO)cc1`, the cytotoxicity call was “inactive”. With `C[C@H](CO)N1C[C@H](C)[C@@H](CN(C)S(C)(=O)=O)Oc2ccc(NS(=O)(=O)c3ccc(F)cc3)cc2C1=O` the cytotoxicity call was “inactive”. In the case of `O=C(/C=C/c1ccc(O)c(O)c1)O[C@]1(C(=O)O)C[C@@H](O)[C@H](O)[C@H](O)C1`, the cytotoxicity call is reported as “inactive”. For `CCCCC/C=C\C/C=C\C/C=C\CCCCCCC(=O)O`, the cytotoxicity call was “inactive”. With `COc1ccc(S(=O)(=O)N[C@H]2CC[C@H](CC(=O)N3CCN(c4ccccc4)CC3)O[C@H]2CO)cc1` the cytotoxicity call was “inactive”. `CC(C)Oc1oc(C(=O)NC2CCCCC2)c(-c2ccc(Cl)cc2)c1S(=O)(=O)c1ccc(Cl)cc1` was tested, and the cytotoxicity call was “inactive”. With `COc1cc2c(Oc3ccc(NC(=O)C4(C(=O)Nc5ccc(F)cc5)CC4)cc3F)ccnc2cc1OCCCN1CCOCC1` the cytotoxicity call was “active”. In the case of `COc1ccc(S(=O)(=O)Nc2cccc3c2O[C@@H](CN(C)C(=O)Nc2c(C)noc2C)[C@@H](C)CN([C@@H](C)CO)C3=O)cc1`, the cytotoxicity call is reported as “inactive”. In the case of `COc1ccc(C(=O)Nc2ccc3c(c2)C(=O)N(C)[C@H]2CC[C@H](CC(=O)NCC4CC4)O[C@H]2CO3)cc1`, the cytotoxicity call is reported as “inactive”. For `CN(C)CC(=O)N1CCO[C@]2(COCCN(c3cncnc3)C2)C1`, the cytotoxicity call was “inactive”. `COc1ccc(NC(=O)N(C)C[C@H]2Oc3c(NC(=O)c4cc(C)nn4C)cccc3C(=O)N([C@@H](C)CO)C[C@@H]2C)cc1` was tested, and the cytotoxicity call was “inactive”. In the case of `C[C@@H]1CN([C@H](C)CO)C(=O)c2cc(-c3ccc(C(=O)N(C)C)cc3)cnc2O[C@H]1CN(C)C(=O)c1cccnc1`, the cytotoxicity call is reported as “inactive”. `C=CCNC(=O)[C@H]1[C@@H]2C(=O)O[C@@H](c3ccccc3)[C@@H](c3ccccc3)N2[C@@H](c2ccc(O)cc2)[C@]12C(=O)Nc1ccc(C#CC3=CCCCC3)cc12` was tested, and the cytotoxicity call was “inactive”. `COc1ccc(CN(C)C[C@@H]2Oc3c(NC(=O)C4CCOCC4)cccc3C(=O)N([C@@H](C)CO)C[C@H]2C)cc1` was tested, and the cytotoxicity call was “inactive”. With `COc1ccc2c3c([nH]c2c1)[C@@H](CO)N(C[C@]13CCN(CC1)C(=O)Nc1ccc(cc1)F)C(=O)c1ccc(cc1)F` the cytotoxicity call was “inactive”. For `O=C(Nc1ncc(SCCN2CCCC2)s1)[C@]1(c2ccc(S(=O)(=O)C3CC3)cc2)C[C@H]1C1CCCCC1`, the cytotoxicity call was “active”. With `COc1ccc(C2=NS(=O)(=O)N(C)C(C(=O)N3CCC(C(N)=O)CC3)=C2)cc1` the cytotoxicity call was “inactive”. For `Cc1ccc(S(=O)(=O)Nc2ccc3c(c2)C(=O)N([C@H](C)CO)C[C@H](C)[C@@H](CN(C)C(=O)Nc2ccc(F)cc2)OCCCC[C@H](C)O3)cc1`, the cytotoxicity call was “inactive”. For `C[C@H](CO)N1C[C@H](C)[C@H](CN(C)C(=O)CN2CCOCC2)Oc2ncc(/C=C/c3ccccc3)cc2C1=O`, the cytotoxicity call was “inactive”. With `CNC(=O)c1c(F)cccc1Nc1nc(Nc2cc3c(cc2OC)CCN3C(=O)CN(C)C)nc2[nH]ccc12` the cytotoxicity call was “active”. In the case of `C[C@@H]1CN([C@H](C)CO)C(=O)c2cccc(NS(=O)(=O)c3ccccc3)c2O[C@H]1CN(C)CC1CC1`, the cytotoxicity call is reported as “inactive”. For `C[C@H]1CN([C@@H](C)CO)C(=O)c2cc(NS(=O)(=O)c3ccccc3)ccc2O[C@@H]1CN(C)Cc1ccc(Oc2ccccc2)cc1`, the cytotoxicity call was “inactive”.
